PubChem BioAssay AID1508642 (National Center for Advancing Translational Sciences (NCATS), 2021)
The whole screen tested about 43,000 compounds, of which about 200 (0.47%) were called active. Not shown: some 12% with an inconclusive outcome. The call rests on the fitted dose curve; in most records, active means well fitted cell-killing curve with a large enough effect; inconclusive means small, poorly fitted or top-dose-only effect, or effect the other way; inactive means flat fitted curve, though single readings scatter. Some of the results follow.

assay: Cell viability qHTS assay in S16 Pmp22-F2sN cells; conditions: S16 Pmp22-F2sN Schwann cells (luciferase reporters placed in the Pmp22 gene) viability, CellTiter-Glo, 24 h; series mostly up to 57.5 µM; activity change, negative = cytotoxicity: at the top concentration; further: nearly all actives have a fitted effect of over 65% in size
Method in brief: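 CellTiter-Glo counter-screen, qHTS, 1536-well. Cells: S16(c9) Pmp22-F2sN, 500-1,000/well in DMEM + 10% FBS. Cpd 23 nL pin transfer, 24 h, 37C/5% CO2. Read: luminescence, CCD imager.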
On the % scale 0 is the no-effect control and ±100 the full control effect.

SMILES | activity change, negative = cytotoxicity
O=C(Nc1nnc(S(=O)(=O)N2CCCC2)s1)c1ccccc1F | inactive: 2.9%
Cc1ccc(N2CC(NC(=O)c3ccco3)CC2=O)cc1C (stereo not drawn) | inactive: 11.6%
O=C(NCCc1ccccc1)c1ccc(CSc2nc3ccncc3n2Cc2ccccc2F)cc1 | inactive: -19.1%
CC(C)COc1ccc(-c2nonc2NC(=O)c2ccc(F)cc2)cc1 | inactive: -0.791%
O=C(NCC1CCCO1)c1c[nH]c2ccc(S(=O)(=O)Nc3ccc(F)cc3F)cc2c1=O (stereo not drawn) | inactive: 0.985%
CC(C)(C)c1ccc(-c2nc(S(=O)(=O)c3ccccc3)c(N3CCOCC3)o2)cc1 | inactive: 2.79%
COc1ccc(C(=O)Nc2nnc(S(=O)(=O)N3CCC(C)CC3)s2)cc1OC | inactive: 3.37%
O=C(c1cccc(F)c1)N1CCC(c2c[nH]c3ccccc23)(c2c[nH]c3ccccc23)CC1 | inactive: 4.99%
CCN(C(=O)C1CCCN(c2ncnc3onc(-c4ccc(F)cc4)c23)C1)c1ccccc1 (stereo not drawn) | inactive: -2.92%
CCOc1ccc(C(CC(=O)Nc2cc(C)c(Cl)cc2OC)N2Cc3ccccc3C2=O)cc1OC (stereo not drawn) | inactive: -8.14%
CC1CCCCN1Cc1c(O)ccc2c(=O)c(-c3ccccc3)coc12 (stereo not drawn) | inactive: 3.4%
Cc1ccc(CNC(=O)c2sc3nc(-c4ccc(F)cc4)ccc3c2N)cc1 | inactive: 0.341%
CCOC(=O)C1=C(CN2CCCCC2)NC(=O)NC1c1ccc(C)cc1 (stereo not drawn) | inactive: 10.3%
COc1cccc(CNC(=O)CN2C(=O)COc3ccc(S(=O)(=O)N4CCCCCC4)cc32)c1 | inactive: 3.45%
Cc1ccc(CNC(=O)c2cc3c(s2)-c2ccc(Cl)cc2SC3)cc1 | inactive: 7.8%
CN(C)c1ccc(NC(=O)CN2CCN(CC(=O)Nc3ccc(Br)cc3)CC2)cc1 | inactive: -5.54%
Cc1ccc(CSC2=Nc3ccccc3C3=NC(CC(=O)NCc4cccs4)C(=O)N23)cc1 (stereo not drawn) | inactive: -6.8%
CCc1cccc(NC(=O)Cn2c(=O)n(CCC(=O)NCC3CCCO3)c(=O)c3cc(OC)c(OC)cc32)c1 (stereo not drawn) | inactive: 2.65%
Cc1ccc(-c2nc3ncccc3o2)cc1NC(=O)c1ccccc1Br | inactive: 24.2%
CCc1ccc(C2CC(=O)NC(NC(=O)c3ccc(C(C)(C)C)cc3)=N2)cc1 (stereo not drawn) | inactive: -4.53%
Cc1c(-c2ccccc2)c(=O)oc2c(CN3CCCC3)c(O)ccc12 | inactive: -4.64%
CCOc1ccc(/C=C/c2nc(C#N)c(Nc3ccc(OCC)cc3)o2)cc1 | inactive: 4.7%
CC1CC(=O)N(CC(=O)Nc2ccc(F)cc2F)c2ccccc2S1 (stereo not drawn) | inactive: 8.19%
COc1ccc(NC(=O)Nc2cccc(-c3cn4cccnc4n3)c2)cc1 | inactive: 14.9%

SMILES | activity change, negative = cytotoxicity
O=C(NCCc1ccc(Cl)cc1)c1ccc2c(c1)N(Cc1ccccc1F)C(=O)c1ccccc1S2(=O)=O | inactive: 1.09%
Cc1nc2ccn(Cc3ccccc3)c(=O)c2cc1C(=O)NCc1ccccc1F | inactive: 10.9%
Cc1noc(C)c1S(=O)(=O)N1CCCC(C(=O)Nc2ccc(C(C)C)cc2)C1 (stereo not drawn) | inactive: 0.0312%
CCc1ccccc1NC(=O)Nc1cc(C(=O)NCc2ccc(OC)cc2)ccc1N1CCCC1 | inactive: -0.237%
O=C(c1ccccc1)n1nc(-c2ccco2)nc1NCc1ccccc1Cl | inactive: -11.4%
COc1ccc(N(C(=O)COc2ccccc2OC)S(=O)(=O)c2ccc(Cl)cc2)cc1 | inactive: -27.5%
CCOc1ccc(CNC(=O)C2CCN(c3nn4c(=O)cc(C)nc4s3)CC2)cc1 | inactive: 11.4%
CCOCCCNC(=O)c1cc2c(=O)[nH]c3ccccc3c2n1C | inactive: 9.35%
CCOc1ccc(CCNC(=O)C2CCC(CNS(=O)(=O)c3ccc(Cl)cc3)CC2)cc1OCC (stereo not drawn) | inactive: 11.2%
COc1cccc(-n2cc(C(=O)Nc3cc(C)c(Cl)cc3OC)c3ccccc3c2=O)c1 | inactive: -8.93%
N#Cc1c(Nc2cccc(F)c2)sc(C(=O)c2ccc(Cl)cc2)c1N | inactive: -9.81%
Cc1ccc(C)c(CN2C(=O)CSc3ccc(C(=O)NCCc4ccc(Cl)cc4)cc32)c1 | inactive: 27.4%
CCCNC(=O)Cn1nc(-c2ccc(C)c(C)c2)c2cnc3ccc(F)cc3c21 | inactive: 3%
Clc1ccc(CNc2cc(-c3ccccc3)nc3nncn23)cc1 | inactive: -23.4%
O=C(Nc1cccc(C(F)(F)F)c1)Nc1nnc(N2CCCCC2)s1 | inactive: -14%
COc1ccc(-c2nc3sc(CCNS(=O)(=O)c4ccc(F)c(C)c4)c(C)n3n2)cc1 | inactive: -25.9%
COc1ccccc1CNC(=O)CN1C(=O)CCn2nc(-c3ccccc3)cc21 | inactive: 3.92%
Cc1ccc(OCC(=O)Nc2ccc3nc(Nc4cccc(Cl)c4)cc(C)c3c2)cc1 | inactive: -4.56%
Cc1c(-c2ccc(Cl)cc2)c(=O)oc2c(CN3CCCC3)c(O)ccc12 | inactive: -6.88%
COc1ccc(N2CC(NC(=O)c3ccc(OC(C)C)cc3)CC2=O)cc1 (stereo not drawn) | inactive: 19.7%
CCn1nc(C)c2c(-c3ccccc3)cc(=O)n(C(C)C(=O)NCc3ccc(C)cc3)c21 (stereo not drawn) | inactive: -10.3%
CCCCCNC(=O)CCn1c(=O)[nH]c2ccccc2c1=O | inactive: -1.89%
CCN(CC)c1ccc(NC(=O)c2cc3c(=O)n4cccc(C)c4nc3n2C)c(C)c1 | inactive: 11.7%
Cc1cc(S(=O)(=O)NCC(c2ccc(N(C)C)cc2)N2CCOCC2)ccc1F (stereo not drawn) | inactive: 1.21%
